# Laboratory results: PMC7819943, “Rice protein-binding microarrays: a tool to detect cis-acting elements near promoter regions in rice”
# Some of the results follow.
# Molecular target: T1, OsWOX13 (Oryza sativa, UniProt Q5QMM3 1-267)
# T1 sequence: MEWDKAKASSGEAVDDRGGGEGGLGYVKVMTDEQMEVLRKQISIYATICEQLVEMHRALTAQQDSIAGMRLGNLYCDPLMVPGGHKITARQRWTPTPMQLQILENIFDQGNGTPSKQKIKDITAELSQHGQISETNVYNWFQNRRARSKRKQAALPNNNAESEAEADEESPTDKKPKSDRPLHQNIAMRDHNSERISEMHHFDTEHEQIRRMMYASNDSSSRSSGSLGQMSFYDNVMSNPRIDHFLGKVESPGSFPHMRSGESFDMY
# Assay: protein-binding microarray (RPBM); PBS, 2% BSA, 51.3 ng/ul salmon testes DNA, 50 uM zinc acetate, 200 nM TF, 25 C, 1 h; high values mean tight binding
# Details: protein: recombinant; tags: N-terminal polyhistidine and DsRed monomer fusion (pET32a); label: CyDye5-dUTP incorporated in the synthesized complementary strand; 3' TTTTT single-stranded linker to array surface; dsDNA, one strand shown
# Procedure, shortened: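 A custom Agilent array was converted to double-stranded form by primer extension with Cy5-dUTP and blocked with 2% BSA. Protein at 200 nM in PBS with 2% BSA, salmon testes DNA and 50 µM zinc acetate was applied for 1 h at 25 °C, followed by washing. The proteins were polyhistidine–DsRed N-terminal fusions of transcription factors, expressed in E. coli BL21-CodonPlus and Ni–NTA-purified. The binding signal is per-feature fluorescence intensity (arbitrary units) from an Axon 4000B scanner.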
row,Sequence,binding signal
1,TTGGAGTGATTTGGCATCTCCTATCAGGCTGCGATAGGTACGGAGTCACCTAGTGCAG,8500 fluorescence intensity (a.u.)
2,GATTTAGATTGGTGATCACTGCATCACTTTGATCACACCACGGAGTCACCTAGTGCAG,29300 fluorescence intensity (a.u.)
3,GAGCTAAATTGATATGCTAAGACTAGATTAACAGAGACATCGGAGTCACCTAGTGCAG,38900 fluorescence intensity (a.u.)
4,GTGATTGTATATAGAGGCTCACAACCGTGTCTTTGTGCTACGGAGTCACCTAGTGCAG,3200 fluorescence intensity (a.u.)
5,AATAAATTTATTTTGGGAGGAAAGTAGTAATGCAGTCATGCGGAGTCACCTAGTGCAG,12300 fluorescence intensity (a.u.)
6,CTGGATATCATCACTAACCTGATTAGGACAGAAATTATGACGGAGTCACCTAGTGCAG,6400 fluorescence intensity (a.u.)
7,TTCTTTTAATTTCTACGTGTGTTCTTAGCATCATCCTGTCCGGAGTCACCTAGTGCAG,3320 fluorescence intensity (a.u.)
8,GACCAACTGTAACTATGATTGATCCTTCTAGATCAAATTTCGGAGTCACCTAGTGCAG,13600 fluorescence intensity (a.u.)
9,TTACTTAATTACTATAGATAATTAGTTGATTAGTGTTACTCGGAGTCACCTAGTGCAG,45000 fluorescence intensity (a.u.)
10,CGAATCCTGTACAGATTTAATTAATTTCGAATTAACGCTTCGGAGTCACCTAGTGCAG,9250 fluorescence intensity (a.u.)
11,GATCCCATGATTAGTATTCTGGTGCTGCGTTGTTCCGAATCGGAGTCACCTAGTGCAG,15300 fluorescence intensity (a.u.)
12,TGACTAAAATGATTATCCGCGAAGTGACCCGCACCCTTCTCGGAGTCACCTAGTGCAG,5460 fluorescence intensity (a.u.)
13,AATATAACTATAATATAATTGAAGTGTAATTACATTGTATCGGAGTCACCTAGTGCAG,37900 fluorescence intensity (a.u.)
14,GCCTCTCCACCAATCAGCGCCCACTTTTACCCACTATAAACGGAGTCACCTAGTGCAG,4900 fluorescence intensity (a.u.)
15,TGTGCATGAATTAATTACAATCTTCCATTGGATGAAAGTGCGGAGTCACCTAGTGCAG,12300 fluorescence intensity (a.u.)
16,ATAATTGCCACCAAAATCTTAGACGTGAGTTTCAAATGAGCGGAGTCACCTAGTGCAG,14200 fluorescence intensity (a.u.)
17,CCGGCCTATATATTAATTAATTATATACAGTAAATTATTTCGGAGTCACCTAGTGCAG,12500 fluorescence intensity (a.u.)
18,GTACTAATATAAGGTGAGTTCTAAATGGTAGACATCCTTTCGGAGTCACCTAGTGCAG,33700 fluorescence intensity (a.u.)
19,AAAATTAAATTGATGGTATTACTAGCATTAATTAGCCACTCGGAGTCACCTAGTGCAG,62800 fluorescence intensity (a.u.)
20,GTCCCACAGAAATGATTGAGGGAAGAGTAAAACCTTCAAGCGGAGTCACCTAGTGCAG,17700 fluorescence intensity (a.u.)
21,GGAAAAGGAGATTGGCAGCGAGTGGCGTACCAGCTGTTGGCGGAGTCACCTAGTGCAG,5660 fluorescence intensity (a.u.)

row,Sequence,binding signal
1,GTTGCATATCAATCATCAAGAATCTCTTCAGAAAGAGGAGCGGAGTCACCTAGTGCAG,14000 fluorescence intensity (a.u.)
2,CCAACATGATTTTGGCCCGTCAAGCGATACGTCGAAATCGCGGAGTCACCTAGTGCAG,4470 fluorescence intensity (a.u.)
3,AAAATTGACTGTACAATGACATTTTGTAGAACTTGCACTCCGGAGTCACCTAGTGCAG,31200 fluorescence intensity (a.u.)
4,CCAAATATTTGACGTGACAGCATGAAAATTTTCGTTTTGGCGGAGTCACCTAGTGCAG,5470 fluorescence intensity (a.u.)
5,TTTATATCGATCTAATAGATGGATTGGTTTTGAGATTGTTCGGAGTCACCTAGTGCAG,5170 fluorescence intensity (a.u.)
6,CCTAACTGGACCTCTATTTTGGAAGGGCTATCTCTGAACTCGGAGTCACCTAGTGCAG,4960 fluorescence intensity (a.u.)
7,TGTAAGACATAAATTATGCCAGCAATAAACATACCATTGTCGGAGTCACCTAGTGCAG,6810 fluorescence intensity (a.u.)
8,ATATAATTCAAATTCAAATTTGAATCGGGTATATAAACTTCGGAGTCACCTAGTGCAG,3670 fluorescence intensity (a.u.)
9,AACTACTAACTGATTATTCCCAGTTTCACATTAAAGAATGCGGAGTCACCTAGTGCAG,15900 fluorescence intensity (a.u.)
10,AGGAGCATATCTAATTGCTCTAATTGAATTCGATCAGTGTCGGAGTCACCTAGTGCAG,25200 fluorescence intensity (a.u.)
11,CCAAATTGAAACTCTTGTCGTCCTCACCTGGAAGGAACCCCGGAGTCACCTAGTGCAG,37400 fluorescence intensity (a.u.)
12,AATCAATAGTCAATGTGATTGATTCTATACTTTTATTTAACGGAGTCACCTAGTGCAG,10900 fluorescence intensity (a.u.)
13,TGATTGTAACTGGATGACATGGACTATGTTTTGATGAATTCGGAGTCACCTAGTGCAG,3340 fluorescence intensity (a.u.)
14,TCGTGACTAACTAATGACAGAATCAACTGAAAACGACCATCGGAGTCACCTAGTGCAG,13900 fluorescence intensity (a.u.)
15,ATTTAAATTAGGTAATTAGTAAATTCAAATCAACTATAGTCGGAGTCACCTAGTGCAG,33800 fluorescence intensity (a.u.)
16,CCATTTCAACAGTTAATTTAGGCTATTTTGGTTTCAATCCCGGAGTCACCTAGTGCAG,3840 fluorescence intensity (a.u.)
17,TTAATAGATAGCACACGAAAACAAATATATTGAGAACATGCGGAGTCACCTAGTGCAG,4200 fluorescence intensity (a.u.)
18,AGTGATGACTGATCTATCAACCAAACCAACTCCCAACTCCCGGAGTCACCTAGTGCAG,25100 fluorescence intensity (a.u.)
19,AGAAATTAAACTCTAACTAGTATACGTATATTCACAGTCACGGAGTCACCTAGTGCAG,4760 fluorescence intensity (a.u.)
20,ATATTTGACCAGAAATTAACGCTGCTGATGCGAGGTCAAACGGAGTCACCTAGTGCAG,4830 fluorescence intensity (a.u.)
21,CTCTGATTAGATGGGTTATAAAGCATGACACTGATAATTTCGGAGTCACCTAGTGCAG,24500 fluorescence intensity (a.u.)
